In all, about 110,000 compounds went through this assay and about 230 (0.21%) showed an effect of 50% or more. The list shows a part of the results.
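Also: 30 min substrate incubation versus DMSO and 10 µM JCP410 controls.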

Chain of DPAP1 (Q8IIJ9 whole entry, looked up): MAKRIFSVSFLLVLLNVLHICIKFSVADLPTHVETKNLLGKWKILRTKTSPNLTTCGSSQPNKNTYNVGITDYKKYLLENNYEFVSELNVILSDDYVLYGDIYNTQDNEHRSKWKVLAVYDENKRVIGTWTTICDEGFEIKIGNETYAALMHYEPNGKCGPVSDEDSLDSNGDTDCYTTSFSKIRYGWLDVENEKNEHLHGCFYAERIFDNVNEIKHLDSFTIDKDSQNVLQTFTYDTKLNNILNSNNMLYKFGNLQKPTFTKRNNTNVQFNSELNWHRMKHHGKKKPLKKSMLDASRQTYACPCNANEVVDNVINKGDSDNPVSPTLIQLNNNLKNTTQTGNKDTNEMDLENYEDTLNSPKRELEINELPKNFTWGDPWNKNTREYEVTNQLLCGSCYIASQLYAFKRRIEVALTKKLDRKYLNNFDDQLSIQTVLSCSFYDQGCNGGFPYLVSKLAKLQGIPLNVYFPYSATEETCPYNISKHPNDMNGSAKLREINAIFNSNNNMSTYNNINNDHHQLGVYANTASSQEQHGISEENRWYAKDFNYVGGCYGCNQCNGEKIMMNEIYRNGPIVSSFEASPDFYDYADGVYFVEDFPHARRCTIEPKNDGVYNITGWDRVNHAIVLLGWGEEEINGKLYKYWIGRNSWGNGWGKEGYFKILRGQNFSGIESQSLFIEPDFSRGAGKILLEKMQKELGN

The experiment has as its target DPAP1 (Plasmodium falciparum, UniProt Q8IIJ9). Description: primary screen, percent inhibition; read by cleavage of a fluorogenic dipeptide substrate; higher = more effect of the substance. Details: species or system P. falciparum D10 trophozoite lysates; single well.
Take `COc1ccc(CO/C(O)=C2\C(C)=NC3=C(C(=O)CCC3)C2c2ccc(O)c(OC)c2)cc1` (stereo not drawn): the “% Inhibition @ 10 uM” value is -0.053%.
As for `Cc1ccc(-c2[nH]nc3c2C(c2ccccc2C)C(C#N)=C(N)O3)cc1` (stereo not drawn), the “% Inhibition @ 10 uM” value was 1.03%.
Consider `CCN1CCC(NCC(C)(C)CN(C)C)CC1`, for which the “% Inhibition @ 10 uM” value is -0.0908%.
With `O=C(COc1ccc(S(=O)(=O)NCc2ccccc2)cc1)NC1CCCC1` the figure was 1.63%; with `N#Cc1ccc(Oc2ccc(C(=O)NCC(=O)O)cc2)cc1`, -9.72%; with `Cc1cccc(OCC(=O)Oc2ccc3c(C)cc(=O)oc3c2)c1`, -4.06%.
With `CCCCNC(=O)CN1C(=O)C2CCCN2c2ncc(Cl)cc21` (stereo not drawn), the “% Inhibition @ 10 uM” value is given as 2.27%.
For `O=C(c1ccccc1F)N(Cc1ccccc1)c1ccccn1`, the “% Inhibition @ 10 uM” value worked out at 3.53%.
With `COc1cccc(-c2nc(-c3ccncc3)no2)c1` the figure was -9.52%; with `O=C(c1ccccc1)c1cnc2cc3c(cc2c1S(=O)(=O)c1ccc(Cl)cc1)OCCO3`, -6.42%.
Under `C/C(=N/S(=O)(=O)c1ccc(C)cc1)N1CCN(S(=O)(=O)c2ccc(C)cc2)C1C(C)C` (stereo not drawn) stands 0.408%; under `CC(=O)c1c(C(C)=O)c(C)n(-c2ccc(Br)cc2)c1C`, 2.62%.
Under `Cc1cc(C(F)(F)F)nc2snc(Br)c12` stands 2.31%; under `CCCCC(NC(=O)OCc1ccccc1)C(=O)NC(CCCCNC(=O)OCc1ccccc1)C(=O)CO` (stereo not drawn), 2.22%; under `O=C(NCCCc1ccccc1)C1=CCN(S(=O)(=O)c2ccc(Br)cc2)CC1`, 1.93%.
`Cc1ccc(Cl)cc1NC(=O)CN1CCN(Cc2ccccc2)CC1`: the “% Inhibition @ 10 uM” value is reported as 3.81%.
Regarding `CCN(CCN(C)C)Cc1ccccc1C(F)(F)F`, the “% Inhibition @ 10 uM” value is -4.75%.
Regarding `CCOC(=O)N1CCC(N2CCCCCCC2)CC1`, the “% Inhibition @ 10 uM” value was -5.11%.
Under `CCOC(=O)c1sc(NCCOCc2ccccc2)nc1C` stands 3.59%.
For the compound `CN(C)S(=O)(=O)c1ccccc1S(=O)(=O)NC(=O)Nc1ncc(-c2ccccc2)cn1`, the “% Inhibition @ 10 uM” value amounted to 0.989%.
`CN1C(=O)N(C)C2(C)CC1(C)N(C)C(=O)N2C`: the “% Inhibition @ 10 uM” value is given as 2.26%.
With `COc1ccc(N2C(=O)C3C4C=CC(C4)C3C2=O)cc1` (stereo not drawn) the figure was -6.82%; with `Cn1c2ccccc2c2nnc(SCC(=O)c3ccccc3)nc21`, -4.7%.
Under `Cn1c(=O)c2nc(Cl)c(-c3ccccc3)nc2n(C)c1=O` stands -8.4%; under `O=C(CCNS(=O)(=O)c1cccc2nsnc12)NCc1ccc2c(c1)OCO2`, 2.74%; under `Cc1cc(C)c2c(-n3cccc3)c(C(=O)NCC3CCCO3)sc2n1` (stereo not drawn), 3.87%.
Under `Cc1cc(C(=O)NCc2cccs2)[nH]n1` stands 2.12%.
In the case of `CC1(C)CC(CCNC(=O)c2ccc(-n3cnnn3)cc2)CC(C)(C)N1`, the “% Inhibition @ 10 uM” value is -1.24%.
With `COc1ccc(N2CCN(C(=O)CN(C)S(=O)(=O)c3cc(Cl)ccc3Cl)CC2)cc1` the figure was -0.318%; with `O=C(NCCc1ccsc1)c1cc2c(Cl)nc3ccccc3c2s1`, 0.232%; with `COc1ccc(-c2cn3c(n2)sc2cc(C(=O)NCCN4CCOCC4)ccc23)cc1`, 1.36%.
As to `Cc1ccc2nc(O)c3cc(C(=O)NCc4cccnc4)sc3c2c1`, the “% Inhibition @ 10 uM” value is 4.88%.
With `N#CCNC(=O)C(CCc1c(F)cccc1F)NC(=O)OCc1ccccc1` (stereo not drawn), the “% Inhibition @ 10 uM” value was -1.5%.
As for `COc1cc(C(=O)N2CCCCC2)cc(OC)c1OC`, the “% Inhibition @ 10 uM” value was -7.5%.
In the case of `CCC(Cc1ccccc1)NC(=O)c1cc(S(=O)(=O)N2CCCC2)cn1C` (stereo not drawn), the “% Inhibition @ 10 uM” value is reported as -0.0652%.
Under `CC1(C)CC(N2CN(C3CCCCC3)CC2=O)CC(C)(C)N1` stands -5.29%; under `CCc1nnc(NC(=O)COc2ccc(C)cc2)s1`, 7.73%.
Under `CCCCN(CC)CCNC(=O)c1ccc(CS(=O)(=O)c2ccc(OC)cc2)o1` stands -1.46%; under `COCCNC(=O)CN(c1ccc(C)cc1)S(=O)(=O)c1ccccc1`, -7.39%; under `Oc1cc(-n2cccn2)c(O)c2ccccc12`, 4.32%.
Under `O=c1[nH]c2ccccc2c(=O)n1CCCN1CCOCC1` stands 1.64%; under `O=C(CNC(=O)c1cccs1)NCCc1ccc(Cl)cc1`, -3.12%; under `Nc1ncnc2c1ncn2CCN1CCOCC1`, -1.75%.
For `CCn1ncc(CN(C)S(=O)(=O)c2c(C)c(C)c(C)c(C)c2C)c1C`, the “% Inhibition @ 10 uM” value was -2.32%.
With `CS(=O)(=O)N(CC(=O)NCc1ccccc1)c1ccc(Cl)cc1` the figure was 2.02%; with `COCCCNC(=O)Cn1ncc2ccsc2c1=O`, -2.92%.
For `CCOC(=O)C1=C(C)N(CC)C(=O)NC1c1ccccc1Cl` (stereo not drawn), the “% Inhibition @ 10 uM” value is given as -3.44%.
Turning to `CC(NC(=O)OCc1ccc(F)cc1)(C(F)(F)F)C(F)(F)F`, the “% Inhibition @ 10 uM” value is recorded as 0.408%.
In the case of `Cc1ccc(-n2c(C)nc3sccc3c2=O)cc1`, the “% Inhibition @ 10 uM” value is -4.72%.
On to `O=C(c1ccccc1)c1ccc2[nH]c(-c3cccc(NC(=O)C4CCCO4)c3)nc2c1` (stereo not drawn), for which the “% Inhibition @ 10 uM” value was 3.29%.
Under `COc1cc(NCc2ccsc2)cc(OC)c1` stands 3.48%.

The record behind these values is article PMC6919601, “Identification of Plasmodium dipeptidyl aminopeptidase allosteric inhibitors by high throughput screening” (PLoS ONE, 2019).
